Experimental data taken from PMC6760808.
Results are given in words; binding and its absence hold for the method and conditions named. Some binding calls cover weakened binding; strength is not graded here. For some of these results: Sequences can lack the tags named with a protein.

T1: NPHP2 (inversin) (UniProt Q9Y283)
T1 sequence: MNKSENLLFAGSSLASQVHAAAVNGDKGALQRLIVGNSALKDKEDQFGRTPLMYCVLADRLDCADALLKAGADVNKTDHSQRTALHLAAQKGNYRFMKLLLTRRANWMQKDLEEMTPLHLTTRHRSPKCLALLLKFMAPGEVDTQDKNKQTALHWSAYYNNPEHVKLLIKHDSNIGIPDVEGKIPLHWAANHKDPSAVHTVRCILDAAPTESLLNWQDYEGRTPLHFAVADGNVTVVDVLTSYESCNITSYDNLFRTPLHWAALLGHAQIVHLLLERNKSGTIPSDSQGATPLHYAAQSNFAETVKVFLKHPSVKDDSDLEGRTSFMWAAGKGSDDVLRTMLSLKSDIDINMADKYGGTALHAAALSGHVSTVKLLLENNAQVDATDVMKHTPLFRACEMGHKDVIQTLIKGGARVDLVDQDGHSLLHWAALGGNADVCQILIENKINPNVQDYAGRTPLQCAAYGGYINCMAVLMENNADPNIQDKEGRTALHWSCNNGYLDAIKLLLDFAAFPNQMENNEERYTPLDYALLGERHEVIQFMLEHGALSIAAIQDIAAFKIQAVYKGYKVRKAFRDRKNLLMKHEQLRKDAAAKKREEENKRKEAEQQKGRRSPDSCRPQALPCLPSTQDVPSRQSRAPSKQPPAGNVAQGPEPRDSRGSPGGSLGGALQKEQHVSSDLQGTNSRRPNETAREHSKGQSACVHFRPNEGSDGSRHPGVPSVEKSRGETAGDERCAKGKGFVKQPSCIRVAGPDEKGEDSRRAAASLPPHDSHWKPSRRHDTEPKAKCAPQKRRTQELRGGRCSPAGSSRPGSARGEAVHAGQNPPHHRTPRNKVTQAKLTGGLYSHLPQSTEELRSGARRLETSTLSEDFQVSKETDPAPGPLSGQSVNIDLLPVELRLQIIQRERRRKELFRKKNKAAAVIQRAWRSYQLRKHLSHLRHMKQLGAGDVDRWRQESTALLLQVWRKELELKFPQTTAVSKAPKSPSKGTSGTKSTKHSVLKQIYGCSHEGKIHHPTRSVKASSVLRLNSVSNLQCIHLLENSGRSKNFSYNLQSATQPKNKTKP

T2: NPHP2-mCh-mito (UniProt Q9Y283)
T2 sequence: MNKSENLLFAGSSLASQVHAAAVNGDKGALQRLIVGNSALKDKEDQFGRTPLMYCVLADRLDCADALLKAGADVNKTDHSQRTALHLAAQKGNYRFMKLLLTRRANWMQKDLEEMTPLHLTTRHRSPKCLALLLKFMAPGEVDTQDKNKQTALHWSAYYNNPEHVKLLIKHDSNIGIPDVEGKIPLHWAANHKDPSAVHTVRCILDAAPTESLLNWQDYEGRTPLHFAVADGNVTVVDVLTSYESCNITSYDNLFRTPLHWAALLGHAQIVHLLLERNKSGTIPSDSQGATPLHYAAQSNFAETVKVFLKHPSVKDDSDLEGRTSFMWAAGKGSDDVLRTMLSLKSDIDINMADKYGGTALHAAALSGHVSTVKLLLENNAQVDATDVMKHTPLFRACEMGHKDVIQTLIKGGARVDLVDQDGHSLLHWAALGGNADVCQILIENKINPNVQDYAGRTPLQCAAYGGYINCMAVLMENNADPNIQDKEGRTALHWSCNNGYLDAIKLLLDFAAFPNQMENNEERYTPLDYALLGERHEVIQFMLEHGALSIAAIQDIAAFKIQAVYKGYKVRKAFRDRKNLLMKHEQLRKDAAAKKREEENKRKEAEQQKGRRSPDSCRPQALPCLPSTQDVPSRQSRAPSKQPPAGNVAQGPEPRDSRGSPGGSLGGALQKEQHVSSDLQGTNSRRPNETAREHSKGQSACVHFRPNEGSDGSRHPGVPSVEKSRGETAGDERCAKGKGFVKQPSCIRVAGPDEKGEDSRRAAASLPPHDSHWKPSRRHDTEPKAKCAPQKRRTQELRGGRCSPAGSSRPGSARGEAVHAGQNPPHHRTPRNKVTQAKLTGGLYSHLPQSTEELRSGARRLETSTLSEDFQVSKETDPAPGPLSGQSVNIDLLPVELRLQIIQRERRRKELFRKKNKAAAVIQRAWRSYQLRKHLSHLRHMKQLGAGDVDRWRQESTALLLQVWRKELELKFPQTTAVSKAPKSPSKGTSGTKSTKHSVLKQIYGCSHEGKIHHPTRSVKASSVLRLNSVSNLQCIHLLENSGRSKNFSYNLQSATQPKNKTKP

T3: NPHP1-mCh-mito (UniProt O15259)
T3 sequence: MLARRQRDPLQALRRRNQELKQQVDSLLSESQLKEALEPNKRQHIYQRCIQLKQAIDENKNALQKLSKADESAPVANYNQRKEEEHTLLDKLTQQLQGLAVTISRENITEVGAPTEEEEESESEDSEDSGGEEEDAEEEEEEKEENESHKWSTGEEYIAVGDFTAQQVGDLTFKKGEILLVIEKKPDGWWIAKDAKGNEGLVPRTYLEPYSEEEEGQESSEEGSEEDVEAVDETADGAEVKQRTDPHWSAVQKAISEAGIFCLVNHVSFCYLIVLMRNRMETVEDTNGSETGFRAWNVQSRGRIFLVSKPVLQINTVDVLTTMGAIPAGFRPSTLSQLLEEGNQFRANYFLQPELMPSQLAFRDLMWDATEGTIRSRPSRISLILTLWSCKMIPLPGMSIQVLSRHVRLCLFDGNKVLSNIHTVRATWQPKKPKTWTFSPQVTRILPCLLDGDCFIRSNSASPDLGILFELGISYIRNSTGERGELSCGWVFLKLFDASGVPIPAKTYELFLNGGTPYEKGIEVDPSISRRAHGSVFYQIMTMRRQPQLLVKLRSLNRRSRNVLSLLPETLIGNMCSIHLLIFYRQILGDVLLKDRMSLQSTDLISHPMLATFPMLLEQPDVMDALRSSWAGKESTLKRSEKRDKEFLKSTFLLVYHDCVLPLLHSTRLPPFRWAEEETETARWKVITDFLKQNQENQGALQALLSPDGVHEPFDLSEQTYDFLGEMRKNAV

T4: NPHP5-mCh-mito (mouse) (UniProt Q8BP00)
T4 sequence: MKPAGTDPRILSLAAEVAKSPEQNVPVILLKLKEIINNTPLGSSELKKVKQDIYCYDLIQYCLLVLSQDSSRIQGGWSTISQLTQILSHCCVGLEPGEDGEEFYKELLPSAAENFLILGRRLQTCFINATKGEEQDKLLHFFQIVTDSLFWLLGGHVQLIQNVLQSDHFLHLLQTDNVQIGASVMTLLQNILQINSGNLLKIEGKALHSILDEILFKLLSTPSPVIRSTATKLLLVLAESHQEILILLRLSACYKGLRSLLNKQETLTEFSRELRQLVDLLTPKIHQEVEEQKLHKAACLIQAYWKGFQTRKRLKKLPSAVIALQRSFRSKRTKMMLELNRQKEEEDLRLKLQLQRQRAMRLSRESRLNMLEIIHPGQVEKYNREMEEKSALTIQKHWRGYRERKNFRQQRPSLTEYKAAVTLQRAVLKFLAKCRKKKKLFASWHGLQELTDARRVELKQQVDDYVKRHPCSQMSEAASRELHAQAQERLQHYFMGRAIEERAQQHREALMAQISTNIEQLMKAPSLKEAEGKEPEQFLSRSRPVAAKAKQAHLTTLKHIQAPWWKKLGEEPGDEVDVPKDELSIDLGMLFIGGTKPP


Legend:
NPHP2 (inversin) = target: T1, NPHP2 (inversin); assay: two-hybrid; directed yeast two-hybrid by mating: AH109 with pGBKT7 (BD, bait) fusions x Y187 with pACT2 (AD, prey) fusions; growth on -leu,-trp,-his plates scored as strong, medium or weak; each mating repeated at least three times
NPHP2-mCh-mito = target: T2, NPHP2-mCh-mito; assay: knocksideways (recruitment to the mitochondrial surface, fluorescence microscopy); NPHP-mCh-mito bait on the mitochondrial surface co-expressed with EGFP-tagged nucleoporin in COS-7 cells; fixed 24 hours post-transfection
NPHP1-mCh-mito = target: T3, NPHP1-mCh-mito; assay: as above
NPHP5-mCh-mito (mouse) = target: T4, NPHP5-mCh-mito (mouse); assay: as above

Row | Binder | binding (NPHP2 (inversin)) | binding (NPHP2-mCh-mito) | binding (NPHP1-mCh-mito) | binding (NPHP5-mCh-mito (mouse))
1 | Nup133 (protein, UniProt Q8WUM0 1-1156) MFPAAPSPRTPGTGSRRGPLAGLGPGSTPRTASRKGLPLGSAVSSPVLFSPVGRRSSLSSRGTPTRMFPHHSITESVNYDVKTFGSSLPVKVMEALTLAEVDDQLTINIDEGGWACLVCKEKLIIWKIALSPITKLSVCKELQLPPSDFHWSADLVALSYSSPSGEAHSTQAVAVMVATREGSIRYWPSLAGEDTYTEAFVDSGGDKTYSFLTAVQGGSFILSSSGSQLIRLIPESSGKIHQHILPQGQGMLSGIGRKVSSLFGILSPSSDLTLSSVLWDRERSSFYSLTSSNISKWELDDSSEKHAYSWDINRALKENITDAIWGSESNYEAIKEGVNIRYLDLKQNCDGLVILAAAWHSADNPCLIYYSLITIEDNGCQMSDAVTVEVTQYNPPFQSEDLILCQLTVPNFSNQTAYLYNESAVYVCSTGTGKFSLPQEKIVFNAQGDSVLGAGACGGVPIIFSRNSGLVSITSRENVSILAEDLEGSLASSVAGPNSESMIFETTTKNETIAQEDKIKLLKAAFLQYCRKDLGHAQMVVDELFSSHSDLDSDSELDRAVTQISVDLMDDYPASDPRWAESVPEEAPGFSNTSLIILHQLEDKMKAHSFLMDFIHQVGLFGRLGSFPVRGTPMATRLLLCEHAEKLSAAIVLKNHHSRLSDLVNTAILIALNKREYEIPSNLTPADVFFREVSQVDTICECLLEHEEQVLRDAPMDSIEWAEVVINVNNILKDMLQAASHYRQNRNSLYRREESLEKEPEYVPWTATSGPGGIRTVIIRQHEIVLKVAYPQADSNLRNIVTEQLVALIDCFLDGYVSQLKSVDKSSNRERYDNLEMEYLQKRSDLLSPLLSLGQYLWAASLAEKYCDFDILVQMCEQTDNQSRLQRYMTQFADQNFSDFLFRWYLEKGKRGKLLSQPISQHGQLANFLQAHEHLSWLHEINSQELEKAHATLLGLANMETRYFAKKKTLLGLSKLAALASDFSEDMLQEKIEEMAEQERFLLHQETLPEQLLAEKQLNLSAMPVLTAPQLIGLYICEENRRANEYDFKKALDLLEYIDEEEDININDLKLEILCKALQRDNWSSSDGKDDPIEVSKDSIFVKILQKLLKDGIQLSEYLPEVKDLLQADQLGSLKSNPYFEFVLKANYEYYVQGQI | binds | – | – | –
2 | EGFP-tagged Nup107 (protein, UniProt P57740 1-925) MDRSGFGEISSPVIREAEVTRTARKQSAQKRVLLQASQDENFGNTTPRNQVIPRTPSSFRQPFTPTSRSLLRQPDISCILGTGGKSPRLTQSSGFFGNLSMVTNLDDSNWAAAFSSQRSGLFTNTEPHSITEDVTISAVMLREDDPGEAASMSMFSDFLQSFLKHSSSTVFDLVEEYENICGSQVNILSKIVSRATPGLQKFSKTASMLWLLQQEMVTWRLLASLYRDRIQSALEEESVFAVTAVNASEKTVVEALFQRDSLVRQSQLVVDWLESIAKDEIGEFSDNIEFYAKSVYWENTLHTLKQRQLTSYVGSVRPLVTELDPDAPIRQKMPLDDLDREDEVRLLKYLFTLIRAGMTEEAQRLCKRCGQAWRAATLEGWKLYHDPNVNGGTELEPVEGNPYRRIWKISCWRMAEDELFNRYERAIYAALSGNLKQLLPVCDTWEDTVWAYFRVMVDSLVEQEIQTSVATLDETEELPREYLGANWTLEKVFEELQATDKKRVLEENQEHYHIVQKFLILGDIDGLMDEFSKWLSKSRNNLPGHLLRFMTHLILFFRTLGLQTKEEVSIEVLKTYIQLLIREKHTNLIAFYTCHLPQDLAVAQYALFLESVTEFEQRHHCLELAKEADLDVATITKTVVENIRKKDNGEFSHHDLAPALDTGTTEEDRLKIDVIDWLVFDPAQRAEALKQGNAIMRKFLASKKHEAAKEVFVKIPQDSIAEIYNQCEEQGMESPLPAEDDNAIREHLCIRAYLEAHETFNEWFKHMNSVPQKPALIPQPTFTEKVAHEHKEKKYEMDFGIWKGHLDALTADVKEKMYNVLLFVDGGWMVDVREDAKEDHERTHQMVLLRKLCLPMLCFLLHTILHSTGQYQECLQLADMVSSERHKLYLVFSKEELRKLLQKLRESSLMLLDQGLDPLGYEIQL | – | no binding | no binding | no binding
3 | EGFP-tagged Nup37 (protein, UniProt Q8NFH4 1-326) MKQDASRNAAYTVDCEDYVHVVEFNPFENGDSGNLIAYGGNNYVVIGTCTFQEEEADVEGIQYKTLRTFHHGVRVDGIAWSPETRLDSLPPVIKFCTSAADMKIRLFTSDLQDKNEYKVLEGHTDFINGLVFDPKEGQEIASVSDDHTCRIWNLEGVQTAHFVLHSPGMSVCWHPEETFKLMVAEKNGTIRFYDLLAQQAILSLESEQVPLMSAHWCLKNTFKVGAVAGNDWLIWDITRSSYPQNKRPVHMDRACLFRWSTISENLFATTGYPGKMASQFQIHHLGHPQPILMGSVAVGSGLSWHRTLPLCVIGGDHKLLFWVTEV | – | no binding | no binding | no binding
